Read counts are not given, so values of variants with three or more changes are uncertain.

Sequences and labels used below:
B1: LINE1-mini (parent)
chain: GGCAGAGCUCAACACAGCGUGGCAAAGUGGCUGUGGCUAGACUGCC

Variants of B1 are the subject of the series. Put plainly: self-cleavage, relative activity (ratio to wild type); higher = more cleavage; in vitro, sequencing; the parent is a self-cleaving ribozyme.
Take A4U A12U U34A A41C: the self-cleavage came to 0.08. The figure for A4U A12G G21U is 0.1; for A4U A11C G22C it is 0.01. The figure for A4U A11C G22A is 0.02; for A4U A16U G19U A25U A26U C45G it is 0.06. With A4G U20A C42A, the self-cleavage amounted to 0.05.

As to A4G C13U G35U, the self-cleavage stood at 0.05. Take A4G C13U G35A: the self-cleavage turned out to be 0.03. As for A4U A26U U43C, the self-cleavage came out at 0.05. The figure for A4G G22A U28C is 0.09; for A4G G17U G29U C46A it is 0.27. The figure for A4U A6C G7C is 0.21; for A4G G7A C10G G19C it is 0.01; for A4U A26C G36U C37G it is 0.02. Under A4G C15G G30C stands 0.07.

For the variant A4U A16G G29A, the self-cleavage is 0.1. As for A4G G7U C45G, the self-cleavage was found to be 2.97. As for A4G G17A G44C, the self-cleavage was 0.06. Take A4G G5U C37U: the self-cleavage was found to be 0.19.

Turning to A4U A12U C15A G27A G33A U34A G35A C45U, the self-cleavage was determined as 0.03. The figure for A4G C15U A24G A25G G29A U43A is 0.04. As for A4G G21A C23U C31A G33U U34G, the self-cleavage was determined as 0.02. Consider A4U A16C G33C, for which the self-cleavage was determined as 0.01. Take A4G C15G G33U U43C: the self-cleavage was determined as 0.04.

Take A4U A26U G27C: the self-cleavage is 0.01. With A4G C13U G40C, the self-cleavage worked out at 0.2.

For A4G C13A G27U, the self-cleavage was 0.06. As to A4U A25C U43C, the self-cleavage stood at 0.03. With A4U A6U G35U, the self-cleavage is 0.15. The figure for A4G G7A C37U C42G is 0.02; for A4G G29A G40U A41U it is 0.17; for A4G U32G U38A C46G it is 0.01. Take A4G G27C G33A U34C: the self-cleavage amounted to 0.05. Under A4U A6C G40C C42G stands 0.02; under A4G G17U G22U G36A, 0.63. Under A4G G5A C42A C45U stands 0.01; under A4U A11U C15U C18U, 0.01.

Turning to A4G G35A C45G, the self-cleavage stood at 0.57. The figure for A4G G33C U34G C45A is 0; for A4U A14G C42G it is 0.02. Under A4U A11G G19A G27A U38A stands 0.01; under A4G G7C G19U A25G C37U, 0.08. For the variant A4G U9A C15G U34A, the self-cleavage is 0.28. Under A4G G30C C31G G33U stands 0.15; under A4U A16G U20A C37A, 0.02; under A4G G5A A6U A16G G44C, 0.01. The figure for A4U A12G A26G C37G is 0.05; for A4G C42U G44C it is 0.5.

In the case of A4G G35A G40U C46A, the self-cleavage was 0.36. With A4G G7C G44U C45U, the self-cleavage amounted to 0.02.

In the case of A4G G40U C45A, the self-cleavage came to 0.07.

Regarding A4U A25C G35U G44U, the self-cleavage came to 0.06.

With A4G U28C G29C, the self-cleavage was found to be 0.1. On to A4G G7C G29U C42A, for which the self-cleavage is 0.18. On to A4U A12G G17U, for which the self-cleavage came out at 0.08. As for A4G G5A G44C, the self-cleavage stood at 0.01. A4U A11U C18G G29U: the self-cleavage is 0.02.

Regarding A4U A16C U32A, the self-cleavage stood at 0.28. The figure for A4G U9G A25C C37A is 0.03; for A4G G5C A12U C37U it is 0.02; for A4G G17A C23A U34C it is 0.33. In the case of A4U A25G G33U G35U, the self-cleavage worked out at 0.04. Under A4G C18A A26C U43A stands 0.07; under A4U A12U C18A, 0.13; under A4G G5U A14U G29U, 0.05.

Take A4G C37A A41U C45A: the self-cleavage amounted to 0.07.

With A4U A12C C13A A26G G30A G40C G44A, the self-cleavage came to 0.03. Regarding A4G G7A G19C G29A G30A A39U, the self-cleavage was found to be 0.16. The figure for A4G G7C A14U A24U G27A is 0.18; for A4G U20A G27A U34A it is 0.04. Under A4U A6G A11G U20G stands 0.05; under A4G C13A U28C C37A G44C, 0.01. Consider A4G G17C G30U, for which the self-cleavage came out at 0.06.

A4U A26G G27U U28G G30A: the self-cleavage was 0.16. Take A4G G27C G29U G33C: the self-cleavage was determined as 0.04. The figure for A4G G17C G21A C37G is 0.07.

For A4G U20G G40U, the self-cleavage was found to be 0.17.

Regarding A4G G21U U32A, the self-cleavage came to 0.04. The figure for A4G C13A U32A C37A is 0.05. The figure for A4G G21U G35U A39C is 0.38; for A4G G7A G17C G27C A39G it is 0.19; for A4G G17A G19U it is 0.03. The figure for A4U A39U G44C is 0.07; for A4U A6C C15A A25G it is 0.07; for A4U A24C G27A G40A G44U it is 0.04. A4G G5A A26U: the self-cleavage was 0.5. The figure for A4G G5C C31A C37G U38A is 0.02; for A4G C13U G19C U32A U34G G40C it is 0.11; for A4G G5C C15G C23U it is 0.03. With A4U A16G C18U C23A A25C G40C, the self-cleavage is 0. With A4U A14G G22A A41G, the self-cleavage worked out at 0.01.

As to A4G G29A G36U, the self-cleavage was found to be 0.67. Under A4G G7A G36U stands 0.05. The figure for A4G G7A G35C C42G is 0.19; for A4U C8A A12G U38G G44A C46G it is 0.04; for A4G G29A C45U it is 1.29. Take A4G U9G G27C C42U: the self-cleavage turned out to be 0.01. Under A4G G22A U43A C46A stands 0.05; under A4G G7A A11G G44A, 0.02; under A4U A6G C15A C37U C46G, 0.01. Under A4G G27U G40A stands 0.25; under A4G G19A U32A C37A, 0.1. With A4U A11G C13G G30C, the self-cleavage came out at 0.02. Under A4U A16U U34C G36U C37A stands 0. With A4G G33U U43A C45G, the self-cleavage was determined as 0.03. The figure for A4G C13U C42A is 0.1; for A4U A14C A25C it is 0.06; for A4U A26C G29U it is 0.04. With A4G G5A C37U, the self-cleavage came out at 0.03.

As to A4G C13A G33A G40U, the self-cleavage came out at 0.14. The figure for A4G G7U G30U G35U G40C is 0.12. The figure for A4G G5A C18A C23U A41C is 0.01.

Regarding A4G C18U U20C G29U U32A, the self-cleavage turned out to be 0.03. In the case of A4U A6G U20A C31U, the self-cleavage was determined as 0.06. As to A4U A6C C8A A11U A12C C13G G36A C37U A39C, the self-cleavage was determined as 0.

Turning to A4G U34G G44A, the self-cleavage is 0.01. For the variant A4G G36A U38A, the self-cleavage worked out at 0.06. The figure for A4G G40A G44A is 0.03; for A4G G5U A6G A12C it is 0.05. As to A4G C23U C31U, the self-cleavage amounted to 0.13.

A4G C15U C18U U20A G36A U43C: the self-cleavage came to 0.05. A4U A6G G19A G35U G40U: the self-cleavage worked out at 0.13. Under A4G G17U A24U stands 0.12; under A4G G7U G21U G22C G44C, 0.09.

For A4G G33A U38G, the self-cleavage stood at 0.03. Under A4G C10U U32G G40A C42A stands 0.07; under A4U A6C C8U C42U G44U, 0.7; under A4G C18A G36C, 0.02. On to A4U A24U G27C G33U G44A, for which the self-cleavage came out at 0.06. For A4U A6U C45G, the self-cleavage worked out at 0.07.

As to A4U A25G U34A, the self-cleavage was determined as 0.2. For the variant A4U A11U G21C C42G, the self-cleavage worked out at 0.

As to A4G U28A C37G, the self-cleavage is 0.01. The figure for A4G U28A C37A is 0.06; for A4G C18U A24C it is 0.35; for A4U A14U G17C A39U it is 0.06.

A4G C31G C45U: the self-cleavage stood at 0.15.

For the variant A4G G21U A24G U34C A41G G44C, the self-cleavage was determined as 0.02. The figure for A4U A6G A11U A26G C45U is 0.01. Take A4U A24U U32A C42A: the self-cleavage amounted to 0.03. As to A4G C18A A24U C31A, the self-cleavage was 0.07.

Turning to A4G C15U C45U, the self-cleavage was 0.2. As for A4G G5A A14G G17C G19U G30A, the self-cleavage was found to be 0.07.

With A4U A6G G35U, the self-cleavage came out at 0.13. As for A4U A14G A26U G36A U43C, the self-cleavage came to 0.03. Under A4U A12C U32A C37U stands 0. On to A4G G21C C42A, for which the self-cleavage was 0.1. The figure for A4U A25G C37G is 0.01; for A4U A16C G30U it is 0.1. In the case of A4U A6C G7C C8A A41U G44C, the self-cleavage amounted to 0.04.

Consider A4G G19C G22A G40C C42G, for which the self-cleavage was 0. The figure for A4G C13U C37U is 0.25; for A4U A6G G36U it is 0.07; for A4U A6C C10A C15G G21U it is 0.02. Under A4G G5A C15G A24U A39G stands 0.03; under A4G G5A G7A G17C, 0.14. The figure for A4G G7A G17U G35U C42A is 0.56; for A4G G7U G22U it is 0.09; for A4G G22U U28A G33A U34A G36U A41C it is 0.09. Take A4U A14G C18G G29U U38C: the self-cleavage stood at 0.09. The figure for A4G G7C A39U is 0.17; for A4U A14G G19C G27U C37G C42U C46A it is 0.02. For the variant A4G G36U U43G G44A, the self-cleavage was determined as 0.03. On to A4G U9G A12U G21U, for which the self-cleavage amounted to 0.06. The figure for A4G C13G C15U A25C U34A G35C is 0.08; for A4U A14C G22A C46A it is 0.05; for A4G G7C C18A G35A it is 0.24.

The record behind these values is the RNAGym collection of RNA variant scans (doi:10.7554/elife.90254).
